# Source: the supplement of paper PMC3334620
# The full ranking holds about 33,000 sequences; the median of “E-score (-0.5 to 0.5)” is about -0.036, and the highest 2% start at about 0.37. This is one part of the list.
# Target: T1, Yer064c (UniProt P40041)
# T1 sequence: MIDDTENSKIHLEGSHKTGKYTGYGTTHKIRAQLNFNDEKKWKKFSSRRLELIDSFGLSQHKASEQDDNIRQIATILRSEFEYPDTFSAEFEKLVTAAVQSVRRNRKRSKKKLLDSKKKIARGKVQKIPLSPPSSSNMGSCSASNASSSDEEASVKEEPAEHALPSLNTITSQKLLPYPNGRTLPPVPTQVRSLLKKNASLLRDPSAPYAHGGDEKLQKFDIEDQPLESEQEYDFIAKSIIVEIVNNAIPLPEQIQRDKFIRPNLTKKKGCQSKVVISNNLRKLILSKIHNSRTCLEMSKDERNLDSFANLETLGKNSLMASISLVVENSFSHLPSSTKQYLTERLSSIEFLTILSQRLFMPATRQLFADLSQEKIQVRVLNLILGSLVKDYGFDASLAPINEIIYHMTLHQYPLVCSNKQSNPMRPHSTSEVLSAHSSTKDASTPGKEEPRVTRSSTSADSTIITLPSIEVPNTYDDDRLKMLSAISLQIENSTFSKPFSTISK
# Test: PBM E-score (8-mer binding enrichment) (E-score (-0.5 to 0.5)); higher = stronger / more preferred TF binding; most listed sequences are background and not binding sites
# Settings: protein concentration: 200 nM; construct: GST-full length
# Experimental: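 Universal 'all 10-mer' protein binding microarrays (Agilent AMADID 015681) probed with GST-tagged S. cerevisiae TFs (full-length or DBD) made by in vitro transcription/translation (PURExpress), about 100-200 nM. Bound TF was detected with fluorescent anti-GST. Each ungapped 8-mer (which stands for itself and its reverse complement) is scored by the PBM enrichment score (E-score), a modified Wilcoxon-Mann-Whitney statistic from -0.5 to +0.5, computed with the Universal PBM Analysis Suite. Scale: above 0.35 generally sequence-specific binding.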
row,Sequence,PBM E-score
1,CATATATC,-0.0369
2,GCCCACGA,-0.051
3,AATACCCG,0.033
4,ATCTTCGA,0.074
5,CTGGCAAA,-0.0477
6,GTGCGATA,0.0394
7,TCCTCCAA,-0.0575
8,CTGAACTC,0.073
9,GAGTGTGC,0.0122
10,ATGACTGC,0.467
11,ACTCCAAT,0.238
12,GCGTGAAA,-0.106
13,ACTATGTA,0.112
14,ATGACTTG,0.435
15,ACAACGCC,-0.2
16,TCAATAGA,0.22
17,CCCCAAGC,-0.052
18,CGGCCGAG,-0.119
19,GAGAATGC,-0.313
20,CCTAGGGA,-0.0279
21,CACAATTC,0.00015
22,GAGCGCCC,-0.263
23,TACATAAA,0.0156
24,AGCGAGTC,0.405
25,AGTGCAAG,-0.0228

row,Sequence,PBM E-score
1,ATGGCCTC,-0.249
2,AACCGAGC,-0.162
3,GTACGGTA,-0.147
4,GGCAGGAA,-0.219
5,ATCCGAAA,-0.0225
6,ACCAAGAC,0.00504
7,ACTGGTGC,-0.164
8,GAGGCGGC,-0.311
9,GTAGGGAC,0.0286
10,TAGCCTAA,-0.0706
11,CATATGAG,0.223
12,AGCTATAT,-0.00349
13,CGCTGAAA,-0.134
14,CCCTTCCC,-0.0101
15,GGGCGAGA,-0.232
16,TCAATTCA,0.118
17,GCCTCCTA,-0.282
18,CTCTTCGA,0.0284
19,CCGCGAGG,-0.0381
20,AGCGGACG,-0.262
21,AGTCTCCC,0.382
22,TGGGACCA,-0.183
23,AGAGCCAA,0.0743
24,AAAAAACC,-0.0361
25,GCTGGACA,-0.0194

row,Sequence,PBM E-score
1,CTCCATAA,-0.0232
2,CTAAGACC,0.115
3,AAGTGCCG,-0.182
4,GCGTGCAA,-0.184
5,CAGGAAGC,-0.0442
6,AGATGTCC,-0.302
7,AAGCTGGG,-0.144
8,AGTGCCAC,-0.368
9,AAAACCGG,-0.021
10,GAGTAAAA,0.112
11,ACTAAATG,0.256
12,TTGGTAAA,0.118
13,GAATCGCC,0.207
14,AGGCTTCC,-0.305
15,CCCGTGAA,0.0268
16,AGGAGGCA,-0.251
17,CGGATGTA,-0.194
18,TGATCTAA,0.18
19,GTAGAAAA,-0.0593
20,AGCCGATA,-0.12
21,GGTCTGAA,-0.136
22,CTTGACTC,0.463
23,ATGAGGCC,-0.309
24,ACTTACGG,0.0488
25,ACAGACGG,-0.0171

row,Sequence,PBM E-score
1,AAATGGCC,-0.343
2,GCTGTGGA,-0.0873
3,TGCGTTAA,0.0664
4,CAAAGGGA,0.131
5,AGCACGTC,-0.179
6,AGTACCAA,0.104
7,CCGGGCCC,-0.315
8,ACGGCGGA,-0.0257
9,CACGGTTA,0.0807
10,CAAATTCC,-0.0634
11,CCATAGAA,-0.119
12,GGAATCGA,-0.0545
13,AACATCAC,-0.111
14,GTATCACA,0.0755
15,TTACAGAA,-0.0215
16,GAACAAAC,-0.148
17,AGTCGTGG,0.373
18,ATACACAC,0.13
19,ACAGTATG,0.0881
20,CACTTCCA,-0.0798
21,AGCGCCTC,-0.254
22,AGTCCACA,0.207
23,CATATAAC,0.021
24,ACCCCACT,-0.13
25,CGGGTTCA,-0.0939

row,Sequence,PBM E-score
1,GGTCTTCA,-0.144
2,CAAGCCGA,0.102
3,AAATGTAT,0.0293
4,AAGCACAG,0.0417
5,CAGATGTA,-0.146
6,AACATTAT,-0.0519
7,GGGGATAA,-0.07
8,AACAGTCG,0.209
9,AAAGCAAC,-0.142
10,TCTAGCCA,0.0953
11,ACTCCGGG,0.164
12,CCCTTCGC,-0.257
13,GCCAAGTA,-0.117
14,CGCTACTA,0.0698
15,ATTCGTGA,0.283
16,GCGCTGTA,-0.0554
17,GCACGAAA,0.0098
18,AACACCCA,-0.0581
19,ACATTGCG,-0.133
20,ATCATATC,0.231
21,GACAATGA,0.11
22,GCAGCCGA,0.0273
23,GAGTGCCA,-0.283
24,ATAGAGAT,0.111
25,CAGGACAC,-0.0355

row,Sequence,PBM E-score
1,TATAATCA,0.387
2,ATCAACGA,0.18
3,AAATATAT,0.0609
4,AACAACCG,-0.036
5,CGCAAAAA,0.101
6,CAAGAATC,0.234
7,TGCTGACA,0.0187
8,CCCTGCGG,-0.169
9,AACACTCT,-0.0759
10,AAAAGTGG,-0.0585
11,ACAATGTC,-0.044
12,AGTACTAT,0.111
13,CCAAATGC,-0.232
14,ACTATGCC,0.0767
15,ATTACTCA,0.329
16,TCGGGTCA,0.036
17,CGCTATAA,-0.101
18,AAGCGTGT,-0.0762
19,ATCCGCCG,-0.101
20,AGTTGTTA,0.0551
21,AGCCAGTG,0.0912
22,AGTTAACC,0.133
23,AGGAGCAT,-0.245
24,AATACATT,0.0194
25,CGAGACGC,-0.169

row,Sequence,PBM E-score
1,CGCATAGA,-0.188
2,CACTTGAA,0.0678
3,TCTTAACA,0.108
4,AAACGCTT,-0.311
5,ATAGAGAA,-0.156
6,CCCGATGA,0.268
7,TATGGCGA,0.0348
8,ACAGGCAC,-0.257
9,CAGTCAAA,0.254
10,AATACCGA,-0.0883
11,ACTCTGAA,0.23
12,CTAATCGA,0.13
13,CGTGACTA,0.486
14,CAATGCAG,-0.109
15,AGATAAGA,0.0614
16,CTTACAGA,-0.154
17,AGCGCAGC,-0.0836
18,ACGTAGGC,-0.297
19,AGATACCG,-0.165
20,GGCGTTAC,-0.247
21,ACCTTAGG,-0.193
22,CCGTCACA,-0.22
